Test results: the supplement of paper PMC12217912
The list shows a part of the results. The full chains were built here from the parent and the listed change. Values near 0.05 are background.

B1: TEV protease; numbered along this chain (parent)
chain: MGESLFKGPRDYNPISSSICHLTNESDGHTTSLYGIGFGPFIITNKHLFRRNNGTLVVQSLHGVFKVKDTTTLQQHLVDGRDMIIIRMPKDFPPFPQKLKFREPQREERICLVTTNFQTKSMSSMVSDTSCTFPSGDGIFWKHWIQTKDGQCGSPLVSTRDGFIVGIHSASNFTNTNNYFTSVPKNFMELLTNQEAQQWVSGWRLNADSVLWGGHKVFMVKPEEPFQPVKEATQL

Variants of: B1
Assay: raw area under fraction-flipped curve 0-4 h after induction (AUC4h, not background-subtracted), DNA-recorder readout of cleavage of the substrate (dimensionless); higher = more cleavage of the substrate by the protease variant
Conditions: temperature: 34 °C; time window: 0-4 h after rhamnose induction
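Also: Bxb1 expression induced with 0.2% (w/v) L-rhamnose at OD600 near 0.5, cultures sampled hourly, flipped fraction per protease–substrate barcode pair counted by paired-end Illumina sequencing.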

| Variant | area with substrate ENLYFQA | area with substrate ENLYFQC | area with substrate ENLYFQD | area with substrate ENLYFQG | area with substrate ENLYFQH | area with substrate ENLYFQI | area with substrate ENLYFQL | area with substrate ENLYFQM | area with substrate ENLYFQN | area with substrate ENLYFQS | area with substrate ENLYFQT | area with substrate ENLYFQV | area with substrate ENLYFQW | area with substrate ENLYFQY | area with substrate ENLYFQK | area with substrate ENLYFQP | area with substrate ENLYFQR | area with substrate ENLYFQQ | area with substrate ENLYFQF | area with substrate ENLYFQE |
| --- | --- | --- | --- | --- | --- | --- | --- | --- | --- | --- | --- | --- | --- | --- | --- | --- | --- | --- | --- | --- |
| V229F | 0.0836 | 0.115 | 0.0616 | 0.0601 | 0.0715 | 0.0661 | 0.062 | 0.0833 | 0.0775 | 0.0996 | 0.068 | 0.0609 | 0.0664 | 0.0717 | – | – | – | – | – | – |
| V229C | 0.115 | 0.132 | 0.0682 | 0.0895 | 0.0767 | – | 0.0591 | 0.0965 | 0.079 | 0.0983 | – | 0.0623 | 0.0695 | – | 0.0566 | 0.073 | 0.0713 | – | – | – |
| K230D | 0.0874 | 0.133 | – | 0.109 | 0.08 | 0.0693 | 0.055 | 0.09 | – | 0.108 | – | – | 0.0879 | 0.108 | 0.0712 | 0.0601 | – | 0.0703 | – | – |
| K230C | 0.101 | 0.122 | 0.0642 | 0.0958 | – | – | 0.0534 | 0.104 | 0.0748 | 0.102 | 0.0662 | – | 0.0612 | – | 0.0668 | – | 0.0505 | 0.0652 | – | – |
| S26L | – | 0.0758 | – | 0.0587 | – | 0.0538 | 0.0626 | – | 0.0443 | 0.0732 | 0.0523 | 0.0543 | 0.0731 | – | 0.0546 | 0.0668 | 0.0556 | – | 0.082 | – |
| S26N | – | 0.0759 | 0.0568 | 0.0664 | 0.0722 | 0.0592 | 0.0618 | 0.0826 | 0.0506 | 0.084 | 0.0333 | 0.0668 | 0.065 | – | 0.0616 | – | 0.0653 | – | 0.0691 | – |
| E25R | – | 0.12 | 0.0777 | 0.106 | – | 0.0569 | 0.0516 | 0.0897 | 0.0821 | 0.107 | 0.0681 | 0.0687 | 0.0971 | 0.135 | 0.0636 | 0.0539 | 0.0538 | 0.105 | – | – |
| I15D | – | 0.0862 | 0.0613 | 0.076 | 0.0342 | 0.0428 | 0.0494 | 0.0587 | 0.0321 | 0.0751 | 0.0425 | 0.0535 | 0.0633 | – | 0.0507 | 0.052 | 0.0478 | – | – | 0.0332 |
| N13I | – | 0.0936 | 0.0723 | – | – | 0.064 | 0.0676 | 0.0869 | 0.0709 | 0.0922 | 0.0609 | 0.0619 | 0.0299 | 0.0676 | 0.0621 | 0.0608 | 0.0628 | – | – | – |
| P9F | – | 0.0637 | 0.0552 | 0.0777 | – | 0.0615 | 0.059 | 0.0826 | 0.0585 | 0.0651 | 0.0606 | – | – | 0.0304 | 0.0385 | 0.0689 | 0.0753 | – | 0.0718 | – |
| Q234N | 0.107 | 0.12 | – | 0.136 | 0.0756 | 0.0635 | 0.0508 | 0.084 | 0.0761 | 0.107 | 0.0767 | 0.0545 | – | 0.0786 | 0.0741 | – | 0.0617 | – | – | – |
| Q234W | 0.0893 | 0.108 | 0.0648 | – | 0.0716 | 0.0527 | 0.0653 | 0.104 | 0.0855 | 0.096 | 0.0653 | – | 0.0562 | 0.0777 | – | – | 0.0512 | – | – | – |
| S4H | – | 0.127 | 0.0748 | – | – | 0.044 | 0.0544 | 0.116 | – | 0.124 | 0.0471 | – | 0.0901 | 0.0834 | – | 0.0593 | 0.0267 | – | 0.0834 | 0.0581 |
| N24E | – | 0.086 | 0.0647 | 0.0622 | 0.0732 | 0.0675 | 0.0647 | 0.0923 | 0.0587 | 0.0859 | 0.0689 | 0.0551 | 0.0679 | 0.0793 | 0.0651 | 0.0674 | 0.0619 | – | 0.0683 | – |
| S18A | – | 0.118 | – | 0.057 | – | – | 0.0584 | 0.113 | 0.138 | 0.11 | 0.0688 | 0.0597 | 0.0736 | 0.0825 | – | – | 0.0666 | – | 0.0794 | – |
| L22I | – | 0.104 | 0.0531 | 0.0849 | 0.0695 | 0.0432 | 0.0552 | 0.0792 | 0.072 | 0.107 | 0.0764 | 0.0637 | 0.0738 | 0.0834 | 0.0667 | 0.0725 | 0.065 | – | – | – |
| T23C | – | 0.105 | 0.0827 | 0.088 | 0.0749 | 0.0497 | 0.0529 | 0.086 | – | 0.1 | 0.0681 | 0.0489 | – | 0.071 | 0.0544 | 0.0557 | 0.0506 | 0.0629 | 0.064 | 0.0693 |
| T23L | – | 0.101 | 0.0489 | 0.0905 | 0.0814 | – | 0.0557 | 0.0691 | 0.0877 | 0.103 | 0.0615 | 0.0615 | 0.0674 | 0.0865 | 0.0555 | 0.0466 | 0.0558 | 0.06 | – | – |
| T23N | – | 0.0873 | 0.0721 | 0.0734 | 0.0754 | 0.06 | 0.0542 | – | 0.0762 | 0.0937 | 0.0608 | – | 0.0706 | – | 0.0572 | – | 0.0497 | 0.0567 | 0.0947 | – |
| P14Y | – | 0.0954 | 0.0691 | – | 0.0656 | 0.0588 | 0.0662 | 0.0764 | 0.0725 | 0.0882 | 0.0689 | 0.0594 | 0.0513 | – | 0.0615 | – | 0.0664 | – | 0.0538 | – |
| P14T | – | 0.122 | 0.0748 | 0.0921 | 0.0781 | 0.0568 | 0.0677 | 0.0937 | 0.0807 | 0.0986 | 0.0686 | 0.0534 | 0.0614 | 0.0949 | 0.0481 | 0.065 | 0.0474 | – | – | 0.061 |
| S17A | – | 0.117 | – | 0.102 | – | 0.055 | 0.0249 | 0.0968 | 0.0894 | 0.109 | 0.0569 | – | 0.0703 | – | 0.0615 | 0.0563 | 0.0622 | 0.0865 | 0.0983 | – |
| Q227K | 0.103 | 0.101 | – | – | 0.083 | 0.0729 | 0.0556 | 0.101 | 0.0734 | 0.106 | 0.0597 | 0.0472 | 0.0591 | 0.0786 | – | 0.0584 | 0.0494 | – | – | 0.0744 |
| Q227V | 0.0949 | 0.133 | 0.0571 | – | 0.0676 | 0.0412 | 0.0542 | 0.0939 | 0.0814 | 0.105 | – | 0.0551 | – | – | – | 0.0496 | 0.0533 | – | – | – |
| E3Q | – | 0.109 | – | – | 0.0799 | 0.065 | 0.066 | – | 0.0839 | 0.0988 | – | – | – | – | 0.0481 | – | 0.071 | – | 0.0395 | – |
